In PubChem BioAssay AID360 (National Center for Advancing Translational Sciences (NCATS), 2006):
Screen size: about 48,000 compounds; about 550 (1.1%) were called active. About 4% were inconclusive and are not listed. No stated cut-off is given here; in the data, active means potency below about 15 µM; inconclusive means mostly about 16 µM to 33 µM; inactive means weaker than that. This is one part of the list.

Target: Lysosomal acid glucosylceramidase (Homo sapiens) (UniProt P04062)
Assay: Glucocerebrosidase;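 further: the screen sought inhibitors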
Settings: purified enzyme, resorufin glucoside fluorescence (screen aimed at inhibitors), 20 min
Summary of the method: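 Wild-type enzyme at 0.2 nM final in 50mM citric acid/KH2PO4, 10mM sodium taurocholate, 0.01% tween-20, pH 5.9, with resorufin beta-D-glucopyranoside at 30 uM final. Compounds titrated, 20 min at RT, red fluorescence read; AC50 from titration.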
Potency means the concentration at half of the fitted maximal effect.

Sequence of UniProt P04062 (P04062 whole entry, looked up): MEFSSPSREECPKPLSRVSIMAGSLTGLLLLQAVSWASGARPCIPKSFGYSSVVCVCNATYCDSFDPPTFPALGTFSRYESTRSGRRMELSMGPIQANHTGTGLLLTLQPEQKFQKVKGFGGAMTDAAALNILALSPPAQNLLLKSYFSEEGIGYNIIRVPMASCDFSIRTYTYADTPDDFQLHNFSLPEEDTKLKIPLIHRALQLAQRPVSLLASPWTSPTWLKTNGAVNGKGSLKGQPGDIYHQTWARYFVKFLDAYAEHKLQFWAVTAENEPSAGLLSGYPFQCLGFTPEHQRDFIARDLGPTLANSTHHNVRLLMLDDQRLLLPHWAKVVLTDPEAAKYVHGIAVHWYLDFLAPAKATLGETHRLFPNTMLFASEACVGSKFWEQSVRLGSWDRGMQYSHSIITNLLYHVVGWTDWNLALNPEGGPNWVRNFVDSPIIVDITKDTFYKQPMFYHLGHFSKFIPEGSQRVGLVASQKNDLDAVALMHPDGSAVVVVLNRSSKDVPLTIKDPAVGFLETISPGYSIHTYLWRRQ

Potency, inactive:
CN(CCc1ccccn1)S(=O)(=O)c1ccc(F)cc1 > 76.9 µM
COc1ccc(OC)c(S(=O)(=O)NCCC2=CCCCC2)c1 > 76.9 µM
CCOC(=O)CC(Nc1nc(N2CCOCC2)nc(N2CCOCC2)n1)c1ccccc1Cl (stereo not drawn) > 76.9 µM
CN(C)S(=O)(=O)c1ccc(S(=O)(=O)N(Cc2ccco2)Cc2ccccc2Cl)cc1 > 76.9 µM
Cc1cc(-c2ccccc2)n(-c2ccc(C(=O)N3CCN(c4ncccn4)CC3)cc2)n1 > 76.9 µM
Nc1nc(N)nc(-c2ccccc2)n1 > 76.9 µM
CCCc1nnc(NC(=O)Cn2c(=O)sc3ccccc32)s1 > 76.9 µM
O=C(Nc1cccc(Cl)c1)c1ccc2c(=O)n3c(nc2c1)CCCCC3 > 76.9 µM
COC(=O)CCC(=O)c1oc2ccc(Br)cc2c1N > 76.9 µM
O=C(NCc1ccc2c(c1)OCO2)c1nn2cccnc2c1Cl > 76.9 µM
COC(=O)c1ccc(OCC(O)Cn2nnc3ccccc32)cc1 (stereo not drawn) > 76.9 µM
COc1ccccc1-n1cnnc1SCC(=O)Nc1cc(C(C)(C)C)nn1-c1ccccc1 > 76.9 µM
Cc1n[nH]c(=O)nc1NCCN(C)C > 76.9 µM
Cc1ccc(-c2nnn(CC(=O)N(c3ccc(F)cc3)C(C(=O)NC3CCCC3)c3ccco3)n2)o1 (stereo not drawn) > 76.9 µM
O=S(=O)(NCC1CCCO1)c1ccc(S(=O)(=O)N2CCc3ccccc3C2)cc1 (stereo not drawn) > 76.9 µM
COc1cccc(C(=O)N2CCN(Cc3ccc4c(c3)OCO4)CC2)c1OC > 76.9 µM
Cc1ccc(-n2ncc(-c3nnc(SCC(=O)NC4CCCC4)o3)c2N)cc1C > 76.9 µM
CC1=C(C(=O)N(C)C)C(c2ccc(Cl)c(Cl)c2)NC(=O)N1 (stereo not drawn) > 76.9 µM
O=C(CSc1nnc(CNC(=O)c2cccs2)o1)c1ccccc1 > 76.9 µM
Cc1c(C(=O)Nc2cccc3cccnc23)oc2ccccc12 > 76.9 µM
CCC(C)(C)n1nnnc1CN(Cc1cc2cc(OC)ccc2[nH]c1=O)C1CCCC1 > 15.4 µM
Cc1cc(C)n(C(=O)c2ccc(NC(=O)CC(C)C)cc2)n1 > 76.9 µM
CCOC(=O)Cc1csc(NC(=O)C2CCCCC2C(=O)O)n1 (stereo not drawn) > 76.9 µM
O=C(COc1ccc(Br)cc1)OCc1nnc(-c2ccccc2)o1 > 76.9 µM
CCOC(=O)Nc1ccc(Oc2ccccc2)cc1 > 76.9 µM
Cc1cc2nnc(SCC(=O)N3C(C)CCCC3C)n2c(N)n1 (stereo not drawn) > 76.9 µM
CCn1nc(C)c(Oc2ccccc2O)c1C > 76.9 µM
O=C(c1cccc(Cl)c1)N1CCN(C2CCCCCC2)CC1 > 76.9 µM
CCNc1nc(NCC)nc(N(C)n2cnnc2)n1 > 76.9 µM
CC(=O)c1cccc(NC(=O)CN(c2cccc(F)c2)S(C)(=O)=O)c1 > 76.9 µM
CCOc1cccc(C2C(C(=O)c3ccco3)=C(O)C(=O)N2Cc2ccncc2)c1 (stereo not drawn) > 76.9 µM
CC(C)C1N(c2ccccc2)C(N)=C(C#N)C1(C#N)C#N (stereo not drawn) > 76.9 µM
CC1(C)Cc2c(c(N3CCCC3)nc3sc4c(N5CCN(CCO)CC5)ncnc4c23)CO1 > 76.9 µM
CC(C)CCNC(=O)C(c1ccco1)N(Cc1ccc(F)cc1)C(=O)c1snc(C(N)=O)c1N (stereo not drawn)
COC(=O)c1sc(S(=O)(=O)N2CCC(C)CC2)c(C(=O)OC)c1C > 76.9 µM
CC(C)COC(=O)CCn1[nH]c(=O)c2ccccc2c1=O > 76.9 µM
CCOC(=O)CSc1nnc(CNC(=O)c2ccc(OC)cc2OC)n1-c1ccc(OC)cc1 > 76.9 µM
Clc1ccc(OCc2nn3c(-c4ccco4)nnc3s2)c(Cl)c1 > 76.9 µM
COc1cccc(NS(=O)(=O)c2ccc3[nH]cc(C(=O)NCCCOC(C)C)c(=O)c3c2)c1 > 76.9 µM
Cc1cc(=O)[nH]c2c1cnn2Cc1ccccc1 > 76.9 µM
N#CC1=C(N)SC2(CCCCC2)SC1c1ccccc1 (stereo not drawn) > 76.9 µM
Cc1nc(N2CCOCC2)c2oc3ccccc3c2n1 > 76.9 µM
O=C(CCNS(=O)(=O)c1cccc2nonc12)N1CCN(c2cccc(Cl)c2)CC1 > 76.9 µM
Cc1ccc(NC(=O)NCCc2ccc(S(N)(=O)=O)cc2)cc1 > 76.9 µM
Cc1cc(C)c(C)c(S(=O)(=O)Nc2ccc(O)cc2)c1C
CCCCC(=O)NC1(C(F)(F)F)C(=O)N(Cc2ccco2)C(C)=C1C(=O)OC (stereo not drawn) > 76.9 µM
O=C(O)CCCC(=O)NCc1ccccn1 > 76.9 µM
Cc1ccc(-c2c3c(=O)n(C)c(=O)n(C)c3c3c(C)cc(C)nn23)cc1 > 76.9 µM
CCN(CC)C(=O)c1ccc(COc2ccccc2Br)o1 > 76.9 µM
O=C(CSc1ccc(Cl)cc1)Nn1cnnc1 > 76.9 µM
COCCn1c(C)cc(C(=O)CSc2ccc(NC(C)=O)cc2)c1C > 76.9 µM
COCCn1c(C)cc(C(=O)CSc2ncnc3sc4c(c23)CCC4)c1C > 76.9 µM
OCCSc1nc(-c2cccnc2)nc2ccccc12 > 76.9 µM
CCOC(=O)C1(CCSC)NC(c2ccco2)C2C(=O)N(CC)C(=O)C21 (stereo not drawn) > 76.9 µM
CCN(CC)CCCn1c(=S)[nH]c2ccccc2c1=O > 76.9 µM
CCCn1c(SCC(=O)Nc2sc(C)c(C)c2C(=O)OC)nc2c1c(=O)n(C)c(=O)n2C > 76.9 µM
CCOC(=O)c1ccccc1NC(=O)Cn1cnc2c(cnn2-c2ccc(F)cc2)c1=O > 76.9 µM
CC(C)(C)NC(=O)C(OC(=O)Cn1nnc(-c2ccc(F)cc2)n1)c1ccncc1 (stereo not drawn) > 76.9 µM
